Data published in PubChem BioAssay AID686978 (National Center for Advancing Translational Sciences (NCATS), 2013).
Several values for one entry are separate records, joined by “and”; a condition that tells them apart may be missing. Equal entries are not always repeated. Hit rate of the full screen: of about 420,000 compounds, about 64,000 (15%) were called active. Inconclusive results, whose numbers are uncertain, are shown with a selection of clear calls. The call rests on the fitted dose curve; in most records, active means well fitted inhibition curve with a large enough effect; inconclusive means small, poorly fitted or top-dose-only effect; inactive means flat fitted curve, though single readings scatter. Potencies beside an inconclusive call are fits to weak or partial responses and may not hold up.

assay: qHTS for Inhibitors of human tyrosyl-DNA phosphodiesterase 1 (TDP1): qHTS in cells in absence of CPT; settings: DT40 Tdp1-/- hTDP1 cells, no CPT, ATP luminescence, 48 h; series mostly up to 46.2 µM; further: nearly all actives have a fitted effect of over 55% in size
Procedure, shortened: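 Chicken DT40 Tdp1-/- cells stably complemented with human TDP1 were seeded at 400 cells/well with DMSO in place of 20 nM camptothecin. After compound pinning, cells grew at least 48 hr at 37 °C; viability read by CellTiter-Glo luminescence.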
Potency means the concentration at half of the fitted maximal effect; tags describe the fitted curve by direction and shape.

SMILES	Potency
CCc1ccc(C2C(C(=O)Nc3ccccc3)=C(C)Nc3c(C(=O)Nc4ccc(C)cc4)cnn32)cc1 (configuration not stated)	active: 23.1 µM
CCCc1nnc(NC(=O)c2c(O)c3cccc4c3n(c2=O)CCC4)s1	active: 0.794 µM
CCOC(=O)n1c(=O)n(Cc2c(Cl)cccc2Cl)c2ccccc21	inconclusive: 23.1 µM [inhibitor, partial curve, poor fit]
O=C(CSc1nccn1Cc1ccco1)Nc1cccc(F)c1	inactive and inconclusive: 18.4 µM [inhibitor, partial curve]
Cc1cc(C(=O)COC(=O)c2cccn2C)c(C)n1Cc1ccco1	inconclusive: 29.1 µM [inhibitor, single point]
COc1ccc2c(c1)OC[C@H]1[C@H]2N2C(=O)CN(Cc3ccc(Cl)cc3)C(=O)[C@@]2(C)[C@H]1c1ccccc1	inconclusive: 29.1 µM [inhibitor, partial curve, poor fit]
CCOC(=O)N/N=C\C=C\c1ccc2c(c1)OCO2	inconclusive: 29.1 µM [inhibitor, single point]
O=C(NCCNC(=O)c1cccnc1)c1cccnc1	inactive
C=CC[C@H](CC(=O)OC(C)(C)C)C(=O)OC[C@@H]1CCCN1C(=O)[C@H](CC=C)CC(=O)N[C@H](CO)Cc1ccccc1	inconclusive: 23.1 µM [inhibitor, single point]
CC(C)CC(=O)Nc1cccc(-c2nc3ncccc3o2)c1	inactive
O=C(Nc1ccc(C(F)(F)F)cc1)C1CCC(CNS(=O)(=O)c2cccc3nsnc23)CC1 (configuration not stated)	inconclusive: 2.06 µM [inhibitor, full curve]
Cc1sc2ncnc(N(C)Cc3cccs3)c2c1C	inconclusive: 25.9 µM [inhibitor, single point]
Cc1nc2ccc(NC(=O)c3ccc([N+](=O)[O-])cc3)cc2s1	inconclusive: 29.1 µM [inhibitor, single point]
CCN1CCN(C(=O)Cn2c(=O)sc3ccccc32)CC1	inactive
COc1cccc(NC(=O)Nc2nnc(COCCO)s2)c1	inconclusive: 8.2 µM [inhibitor, single point]
CCC1CCCCN1Cc1nc(Cc2ccccc2Cl)no1 (configuration not stated)	inconclusive: 25.9 µM [inhibitor, partial curve]
COC(=O)c1ccsc1NC(=O)CSc1nnnn1-c1ccccc1SC	inconclusive: 20 µM [inhibitor, single point]
Cc1ccnc(NC(=O)CNC(=O)c2ccc(Br)o2)c1	inactive
O=C(CSc1ncnc2scc(-c3ccccc3)c12)N1CCN(c2ccccc2F)CC1	active: 18.4 µM
CC(=O)c1cccc(NC(=O)C(C)OC(=O)c2cc(=O)[nH]c3ccccc23)c1 (configuration not stated)	inactive
COC(=O)c1ccc(S(=O)(=O)N2CCCN(Cc3cccc(Br)c3F)CC2)n1C	inconclusive: 29.1 µM [inhibitor, single point]
CCn1nnc(-c2ccccc2NC(=O)c2ccc(-n3cnnn3)cc2)n1	inconclusive: 16.4 µM [inhibitor, single point]
Cc1ccccc1-c1nc(C#N)c(NCc2ccco2)o1	inactive
Cc1ccc(C(C)C)cc1OCC(=O)NCCCn1ccnc1	active: 23.1 µM

SMILES	Potency
Cc1ccc(OCc2nc3ccccc3[nH]2)cc1	inconclusive: 14.6 µM [inhibitor, partial curve, poor fit]
O=c1[nH]c2ccccc2c2ccc(Cl)cc12	inconclusive: 14.6 µM [inhibitor, partial curve, poor fit]
CC1CCCCN1C(=O)c1cc(S(=O)(=O)N2CCCCC2)c[nH]1 (configuration not stated)	inconclusive: 25.9 µM [inhibitor, single point]
Cc1ccccc1-c1nnn(CC(=O)NC(=O)NC2CCCC2)n1	inactive
CCCc1ccc(Oc2cc(Cl)nc(N)n2)cc1	inconclusive: 29.1 µM [inhibitor, single point]
O=C(c1ccc(S(=O)(=O)N2CCCC2)cc1)N1CCN(c2ccccc2)CC1	inactive
CC(C)Cc1nc2ccccc2n1CCc1ccccc1	inconclusive: 16.4 µM [inhibitor, single point]
Cc1ccc(CCNC(=O)C2=CCN(S(=O)(=O)c3ccccc3)CC2)cc1	inactive
CCn1c(-c2ccccc2Cl)nn(CC(=O)Nc2cc(Cl)ccc2Cl)c1=S	inconclusive: 4.61 µM [inhibitor, partial curve]
CC(C)n1cnnc1SCC(=O)Nc1cccnc1Cl	inactive
CCCc1c(-c2cccc(Cl)c2)ncn1Cc1cccc(-c2ccccc2)c1	active: 18.4 µM
O=C(CCC(=O)Nc1ccc(Cl)cc1Cl)N/N=C/c1ccc([N+](=O)[O-])o1	active: 2.91 µM
Cc1cc(OCCCC(=O)Nc2cc(S(=O)(=O)N3CCOCC3)ccc2N2CCOCC2)ccc1Cl	inconclusive: 25.9 µM [inhibitor, single point]
Cc1cnc(C(=O)N2CCCC(C(=O)c3ccc(Cl)cc3C)C2)cn1 (configuration not stated)	inconclusive: 25.9 µM [inhibitor, single point]
CC(CCc1ccccc1)NC(=O)CN1CCc2ccccc2C1 (configuration not stated)	inconclusive: 29.1 µM [inhibitor, single point]
Cc1ccnc(NC(c2ccccc2)c2ccc3cccnc3c2O)c1 (configuration not stated)	active: 20.6 µM
O=C(Cn1c2ccccc2c2nc3n(c(=O)c21)CCS3)N1CCCC1	inactive
C#CCn1c(=NC(=O)c2ccc(Br)s2)sc2cc(NC(C)=O)ccc21	inactive
CN(CCC#N)C(=O)CSc1nnc(-c2c[nH]c3ccccc23)o1	inactive
CC(=O)Nc1ccc(/C=N/NC(=O)CC2CCCCC2)cc1	inconclusive: 29.1 µM [inhibitor, single point]
Cc1ccc(NC(=O)C2CCCN(S(=O)(=O)c3c(C)noc3C)C2)c(Br)c1 (configuration not stated)	inconclusive: 18.4 µM [inhibitor, single point]
COc1ccccc1-c1nnc(Nc2nc3c(OC)cccc3s2)o1	active: 0.731 µM
CCC(C)NC(=O)c1cc2c(Cl)nc3ccc(C)cc3c2s1 (configuration not stated)	inconclusive: 23.1 µM [inhibitor, single point]
